Source: PubChem BioAssay AID445 (National Center for Advancing Translational Sciences (NCATS), 2006)
The campaign covered roughly 110,000 compounds. About 40 (0.04%) were called active. The inconclusive results got no clear call from the source; some entries with a clear call stand among them for comparison. Calls come from the whole dose curve; as a rule, active = well fitted curve in the direction sought with a large enough effect in the signal ratio (not every such curve was filed as active); inconclusive = small, poorly fitted or top-dose-only effect, or a change in a side signal; inactive = flat fitted curve, though single readings scatter; the % refers to the signal ratio. Where the call is inconclusive, the potency comes from a doubtful curve fit.

Assay: IkB Signaling;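 for IkBa stabilization activation: 0% = basal untreated cells and 100% = reference inhibitor full response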
Settings: ABC-DLBCL IkBa-CBG/CBR dual luciferase ratio (green luciferase fused to IkBa over red control in OCI-Ly3 lymphoma cells), 4 h; IkBa stabilization activation: at 57.1 µM (top of the series), scaled: untreated 0%, proteasome inhibitor 100% unless noted
In short: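 Curves were fitted separately to fusion (green), unfused (red) and ratio luminescence, then classed by r2, magnitude and activity. Cells: OCI-Ly3, 4 h compound plus doxycycline at 37C; 10 uM MG-132 defined full response.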
Potency is the fitted concentration of half-maximal effect.

Structure (SMILES) | IkBa stabilization activation | Potency
COC(=O)c1ccccc1NC(=O)CN1C(=O)COc2ccccc21 | inconclusive: 5.32% [signal inhibitor] | 
Cn1cccc1C(=O)N1CCC2(CCN(Cc3ccc(C#N)cc3)CC2)CC1 | inactive: 0.48% [at 11.4 µM, scaled: untreated 0%, proteasome inhibitor 100%] | 
O=C(c1ccc(Cl)s1)N1CCc2ccccc21 | inactive | 
CCOC(=O)Nc1cccc(OCC(=O)Nc2ccccc2OC)c1 | inconclusive: 1.35% [signal inhibitor] | 
CCOc1cc(C(=O)Nc2c(NC)c3ccccc3oc2=O)cc(OCC)c1OCC | inconclusive: 5.48% [signal inhibitor] | 
Cc1ccc(-n2c(SCC(=O)Nc3cc(C)on3)nc3c(c2=O)SC(C)C3)cc1 (stereo not drawn) | inactive | 
Cc1cc(OC2CCCCC2)nc(-c2ccccc2O)n1 | inactive | 
Cc1ccc(C)c(CN2C(=O)c3ccccc3Sc3ccc(C(=O)NC4CCCC4)cc32)c1 | inconclusive: 0.585% [signal inhibitor] | 
COc1ncc2nc(CCc3ccccc3)c(=O)n(C3CC3)c2n1 | inactive: -3.07% [at 11.4 µM, scaled: untreated 0%, proteasome inhibitor 100%] | 
COc1ccc(NC(=O)c2c(C)oc3ccc(O)c(CN4CCCC(C)C4)c23)cc1Cl (stereo not drawn) | inconclusive: 0.263% [signal inhibitor] | 
CC1(C)OC(=O)C(=CNc2ccccc2)C(=O)O1 | inactive | 
COc1ccccc1-c1cn(S(=O)(=O)c2ccc(C)cc2)nc1N | inconclusive: 13.8% [signal inhibitor] | 
Cc1ccc(N2CCN(C(=O)CCc3c(C)nc4ncnn4c3C)CC2)c(C)c1 | inconclusive: -1.32% [signal inhibitor] | 
Cc1cc(C)c(C#N)c(SCC(=O)Nc2ccccc2C#N)n1 | inconclusive: 0.458% [signal inhibitor] | 
CCS(=O)(=O)c1ncc(Cl)c(C(=O)N(Cc2ccccc2)Cc2ccco2)n1 | inconclusive: -2.19% [signal inhibitor] | 
COc1cccc(CNC(=O)CSc2ncc(S(=O)(=O)c3ccc(C)c(Cl)c3)c(=O)[nH]2)c1 | inconclusive: 2.67% [signal inhibitor] | 
COc1ccc(N2CCN(C(CNS(=O)(=O)c3c(C)cc(C)cc3C)c3ccco3)CC2)cc1 (stereo not drawn) | inconclusive: 0.117% [signal inhibitor] | 
O=C(Cn1c(=O)n(Cc2ccc(F)cc2)c(=O)c2sc3ccccc3c21)NCc1ccccc1Cl | inactive | 
Cc1ccn2c(Nc3ccc4c(c3)OCO4)c(-c3ccco3)nc2c1 | inconclusive: 13% [signal inhibitor] | 
Cc1ccc(C)c(NC(=O)CSc2nncn3c2cc2sccc23)c1 | inconclusive: 2.27% [signal inhibitor] | 
O=C1CN(C(=O)c2ccccc2)C(c2ccc(F)cc2)c2cc(Br)ccc2N1 (stereo not drawn) | inconclusive: 8.07% [signal inhibitor] | 
CCOc1ccc(N2CC(c3nc4ccccc4n3CCC3CCCCC3)CC2=O)cc1 (stereo not drawn) | inconclusive: 0.885% [signal inhibitor] | 
CCCNC(=O)C1CCN(c2cc(C)nc3c(-c4ccc(OC)c(OC)c4)c(C)nn23)CC1 | inconclusive: 0.579% [signal inhibitor] | 

Structure (SMILES) | IkBa stabilization activation | Potency
Cc1ccc(CCNc2nc3ccccc3c3nc(-c4ccccc4)nn23)cc1 | inconclusive: 3.58% [signal inhibitor] | 
COC(=O)c1cc(NC(=O)Cn2ncc3c2-c2ccccc2OC3)cc(C(=O)OC)c1 | inconclusive: 0.795% [signal inhibitor] | 
Cc1cccc(CS(=O)(=O)CC2Nc3ccc(C(=O)NCc4ccccc4Cl)cc3NC2=O)c1 (stereo not drawn) | inconclusive: 2.47% [signal inhibitor] | 
O=C(CSc1nc2ccccc2[nH]1)c1ccc2c(c1)OCO2 | inconclusive: 4.91% [signal inhibitor] | 
COC(=O)c1ccc(CSc2nnc3n(Cc4ccccc4OC)c(=O)c4ccccc4n23)o1 | inconclusive: 11.3% | 
N=c1ccn2c(n1)O[C@@H]1[C@@H](O)[C@H](CO)O[C@H]12 | inactive | 
COc1cccc(C(=O)Nc2ccc3c(c2)CCCN3C(=O)c2cccs2)c1OC | inconclusive: 4.03% [signal inhibitor] | 
CCc1ccc(-n2c(=O)c3cccnc3n2CC(=O)N(CC)c2cccc(C)c2)cc1 | inconclusive: 2.53% [signal inhibitor] | 
CN1CCC2(CC1)CCN(C(=O)c1cc(C(F)(F)F)cc(C(F)(F)F)c1)CC2 | inactive: 0.926% [at 11.4 µM, scaled: untreated 0%, proteasome inhibitor 100%] | 
CCOc1ccc(Nc2c(S(=O)(=O)c3ccc(C)cc3)cnc3ccccc23)cc1 | inconclusive: -2.28% [signal inhibitor] | 
CCc1ccc(NC(=O)CSc2nnc(-c3nonc3NC(C)=O)n2-c2ccccc2)cc1 | inactive | 
CN1C(=O)CSc2ccc(NC(=O)Nc3ccccn3)cc21 | inconclusive: -4.14% [signal inhibitor] | 
COc1cccc(Cn2c(SCc3ccc(C(=O)N4CCC(C)CC4)cc3)nc3ccncc32)c1 | inconclusive: 3.24% [signal inhibitor] | 
CCCCCCCC[N+](CCCCCCCC)(CCCCCCCC)CCCCCCCC | inconclusive: -6.18% [signal inhibitor] | 
COc1cc(NC(=O)CCCSc2nc(-c3ccco3)cc(C(F)(F)F)n2)cc(OC)c1OC | inconclusive: 5.74% [signal inhibitor] | 
CC(C)CN1CC[C@@]2(CCCN(C(=O)c3ccco3)C2)C1 | inactive: -1.88% [at 11.4 µM, scaled: untreated 0%, proteasome inhibitor 100%] | 
CC(C)(C)OC(=O)N1CCC(c2c(C(=O)NCCN3CCOCC3)cnn2-c2ccccc2)CC1 | inconclusive: 2.24% [signal inhibitor] | 
CCOc1ccccc1N(CC(=O)NC1CCCC1)C(=O)CCC(=O)Nc1cc(C)on1 | inconclusive: 0.751% [signal inhibitor] | 
O=C(Cn1c(=O)oc2ccccc21)NCc1ccc(Cl)cc1 | inactive | 
CCOC(=O)c1c(Nc2ccccc2)nnc(-c2ccccc2)c1-c1ccccc1 | inconclusive: 9.19% [signal inhibitor] | 
Cc1ccc(N2CC(c3nnc(Cc4ccc(F)cc4Cl)o3)CC2=O)cc1 (stereo not drawn) | inactive | 
COc1ccccc1NC(=O)Oc1ccc(NC(=O)c2ccco2)cc1 | inconclusive: 2.75% [signal inhibitor] | 
COC(=O)CNC(c1ccccc1)c1cc(Br)ccc1NC(=O)c1cc(OC)c(OC)c(OC)c1 (stereo not drawn) | inconclusive: 9.61% [signal inhibitor] | 

Structure (SMILES) | IkBa stabilization activation | Potency
CC1=C(c2ccc(Cl)cc2)S(=O)(=O)N=C1N1CCN(c2cccc(C)c2)C(C)C1 (stereo not drawn) | inactive | 
CCOc1ccc2nc(N3CCCCCC3)sc2c1 | inactive | 
CNC(=O)c1ccc(NC(=O)c2nsc3ccccc23)cc1 |  | inconclusive: 31.6 µM [signal inhibitor, partial curve]
Cc1ccc(-c2csc(=Nc3ccccc3)n2CCCO)cc1 | inconclusive: -3.7% [signal inhibitor] | 
COc1ccc2c(c1)c(N1CCCC1=O)c(C(=O)Nc1ccc(Cl)cc1C)n2C | inconclusive: -1.3% [signal inhibitor] | 
CCN1Cc2cccc(C(=O)Nc3ccc(F)cc3)c2C1=O | inactive | 
COC(=O)c1c(NC(=O)c2ccc(S(=O)(=O)N3CCCCC3)cc2)sc2c1CCN(C)C2 | inconclusive: 1.93% [signal inhibitor] | 
Cc1ccc(-n2c(SCc3nc(-c4ccccc4C)no3)nnc2-c2ccncc2)cc1C | inconclusive: 2.65% [signal inhibitor] | 
CCn1cc2nc(SCc3cccc(C(F)(F)F)c3)n(CCc3ccccc3)c(=O)c2n1 | inconclusive: 3.31% [signal inhibitor] | 
CC1(C)CCC[C@@]2(C)[C@@H]1CC[C@]1(C)OC(=O)C[C@@H]21 | inactive: 0.129% [at 11.4 µM, scaled: untreated 0%, proteasome inhibitor 100%] | 
CCN1C(=C2C(=O)c3ccccc3C2=O)C=Cc2ccccc21 | inactive | 
COc1ccc(-c2cc(C)no2)cc1S(=O)(=O)Nc1cccc(C(F)(F)F)c1 | inconclusive: 8.91% [signal inhibitor] | 
Cc1c(CCNC(=O)c2ccc(C(F)(F)F)cc2)sc2nc(-c3ccc(F)cc3)nn12 | inconclusive: -1.41% [signal inhibitor] | 
COc1ccc(-c2[nH]c(-c3ccc(F)cc3)nc2SCC(=O)Nc2ccc(OC)c(OC)c2)cc1 | inactive | 
Cc1ccc(NC(=O)N(Cc2ccc3c(c2)OCO3)Cc2cc3cc4c(cc3[nH]c2=O)OCCO4)cc1 | inactive | 
CCN(CC)C(=O)Oc1ccc2c(=O)c(-c3ccccc3)coc2c1 | inactive | 
O=C1OC(=O)[C@@H]2[C@@H]1[C@@H]1CC[C@H]2O1 | inconclusive: 7.97% [signal activator] [at 11.4 µM, scaled: untreated 0%, proteasome inhibitor 100%] | inconclusive: 20 µM [rising, partial curve, poor fit]
CC(=O)c1cc(-c2ccccc2)n(CC(=O)NC2CCCCCC2)c1C | inactive | 
O=C(Nc1cccc(C(F)(F)F)c1)c1noc2c1CCc1ccccc1-2 | inconclusive: 2.91% [signal inhibitor] | 
O=C(NCCc1ccc(Cl)cc1)c1cccn1-c1nnc(N2CCCCC2)s1 | inconclusive: 9.54% [signal inhibitor] | 
Cc1cc(O)c(C(c2cccc(F)c2)N2CCC(C)CC2)c(=O)n1Cc1ccco1 (stereo not drawn) | inconclusive: 0.0947% [signal inhibitor] | 
